ChEMBL document CHEMBL4888484, “Replenishing the malaria drug discovery pipeline: Screening and hit evaluation of the MMV Hit Generation Library 1 (HGL1) against asexual blood stage Plasmodium falciparum ,using a nano luciferase reporter read-out” (2022)
Where “and” joins values, the source holds several entries; their conditions need not be identical. Equal entries are not always repeated. The whole screen tested about 150,000 compounds, of which about 540 (0.36%) showed an effect of 50% or more. The list shows a part of the results.

Test system: Plasmodium falciparum
Assay: Primary screen in NF54 nanoGlo assay, in single point, at 2uM, 72h; a lower Z score goes with more inhibition
Format: functional, Erythrocyte
Conditions: timepoint 72 hour

Row | Structure (SMILES) | % Inhibition [%] | Z score | Z score (2 µM)
1 | O=S1(=O)NCCN1c1cccc(Br)c1 | -10 | 1.29 | 
2 | CCN(CC)c1onc(-c2ccccc2)c1CN(Cc1ccco1)C(C)=O | -1 | 0.11 | 
3 | Cn1cnc([C@H]2CN(C(=O)NCc3cccc(Cl)c3)C[C@@H]2N)c1 | 3 | -0.57 | 
4 | COc1cccc(-c2nc(CC(=O)OCC(=O)Nc3ccc(N4CCCCC4)cc3)cs2)c1 | 1 | -0.09 | 
5 | CC(CCc1ccccc1)NC(=O)C(C)NS(=O)(=O)c1ccccc1F (stereo not drawn) | 18 | -3.53 | 
6 | CS(=O)(=O)N(Cc1ccsc1)CC(F)(F)F | -33 | 5.57 | 
7 | O=C(N[C@H]1C[C@@H]2C[C@H]1CN2C(=O)c1ccc(C(F)(F)F)s1)c1cccnc1 | 36 | -4.02 | 
8 | O=C(Cc1ccc(-c2ccccc2)cc1)Nn1cnc2ccccc2c1=O | 4 | -0.77 | 
9 | CS(=O)(=O)[C@H]1CCN(S(=O)(=O)CCc2ccccc2)C1 | -10 | 1.78 | 
10 | Cc1cccc(-c2noc(Cc3ccc(-c4ccccc4)cc3)n2)c1 | -14 | 1.98 | 
11 | O=C(NCCN1Cc2ccccc2O[C@H](c2ccccc2)C1)C1=CCCCC1 | -12 | 2.11 | 
12 | O=C1C[C@]2(CCN(c3nccc(C(F)(F)F)n3)C2)C(=O)N1 | 10 | -1.92 | 
13 | CC(C)(C)NC(=O)CN1CC(c2ccccc2)(c2ccccc2)CCC1=O | 8 | -1.02 | 
14 | CN1N=C(C(=O)Nc2nc3c(Cl)c(Cl)ccc3s2)CCC1=O | -6 | 0.88 | 
15 | Cc1cc(C)c(CNS(=O)(=O)C2CCOC(C)C2)c(C)c1 (stereo not drawn) | -9 | 1.56 | 
16 | COC[C@@H]1CCCN1Cc1ccc2c3c(cccc13)C(=O)OC2 | -8 | 1.54 | 
17 | COc1ccc(NC(=O)N2CCC(O)(c3csc(CN4CCN(C)CC4)n3)CC2)cc1 | 27 | -3 | 
18 | O=C(N[C@H]1CCN(Cc2noc(-c3ccccc3)n2)C1)c1ccc(F)c(F)c1 | -10 | 1.95 | 
19 | COc1cccc2c1CN(C(=O)NC1CCC(=O)NC1C1CCCO1)C2 (stereo not drawn) | -12 | 2.33 | 
20 | CCCn1nnnc1CNc1cc(Cl)ccc1C(N)=O | 8 | -0.64 | 
21 | COC(=O)N1CCCC[C@H]1c1nc(C)nn1CCc1ccccc1 | -8 | 1.24 | 

Row | Structure (SMILES) | % Inhibition [%] | Z score | Z score (2 µM)
22 | CC(C)Nc1ccc(F)cc1NC(=O)C[C@H]1CCOC1 | -7 | 1 | 
23 | Cc1onc(-c2ccccc2)c1C(=O)N1CCC[C@H]1C(=O)O | -5 | 0.8 | 
24 | Cc1cc(C)cc(NC(=O)[C@H]2CCCN(c3ncnc4oc(C)c(C)c34)C2)c1 | 5 | -0.57 | 
25 | Cc1cccc(-c2nnc(C)c(NCCCN3CCOCC3)n2)c1 | 1 | -0.26 | 
26 | CCC(C)CN1C(=O)C(Cc2ccccc2)NC12CCN(C(=O)c1ccc(OC)cc1)CC2 (stereo not drawn) | -15 | 1.48 | 
27 | CC(C)Cc1cc(CNS(=O)(=O)[C@H]2CCS(=O)(=O)C2)on1 | -5 | 0.49 | 
28 | COC(=O)CCC(=O)N1CCC(C)CC1 | -3 | 0.49 | 
29 | O=C1CC[C@@]2(CCCO2)CCN1Cc1ccncc1 | -14 | 2.79 | 
30 | NC(=O)c1cccnc1Oc1ccc(Cl)c(CN2CCCC2)c1Cl | 11 | -1.56 | 
31 | Cc1ccc(C2=C[C@@H](c3ccc(C)cc3)n3nnnc3N2CC(=O)Nc2ncc(C)s2)cc1 | -3 | 0.27 | 
32 | COCC(COC)NC(=O)N1CC(C)C(C)(CO)C1 (stereo not drawn) | 1 | -0.17 | 
33 | CC(=O)Nc1ccc(C)cc1S(=O)(=O)N1CCN(Cc2nc3ccc(Cl)cc3o2)CC1 | -21 | 1.88 | 
34 | O=C1[C@H]2Cc3ccccc3CN2C(=O)CN1Cc1ccc(F)cc1 | -7 | 0.87 | 
35 | O=C1NCCN(C(=O)Cn2ccccc2=O)[C@H]1Cc1ccccc1 | 2 | -0.36 | 
36 | Cc1nn(CCO[C@@H]2CCCCO2)c(C)c1Br | -13 | 1.75 | 
37 | CC1=C(C(=O)Nc2ccccc2)C2(CCCC2)[C@@H](C(N)=O)C(=O)N1 | 10 | -1.28 | 
38 | O=C(CC[C@@H]1NC(=O)N(Cc2ccc3c(c2)OCO3)C1=O)N1CCc2ccccc2C1 | -4 | 0.57 | 
39 | OC[C@H]1CN(c2nc3ccc(Cl)cc3s2)C[C@H]1CN1CCCCC1 | -1 | 0.23 | 
40 | N#Cc1cccc(C(=O)N2CCC3(CC2)C[C@H](CO)N(C(=O)c2ccccc2)C3)c1 | 1 | -0.08 | 
41 | COCCC(=O)Nc1cc(C(=O)N[C@H]2CCS(=O)(=O)C2)cc2nc(-c3ccccc3)n(C)c12 | 7 | -0.9 | 
42 | CC1(C)C(NC(=O)C2CCCC2)C2CCCN(c3ncc(Cl)cn3)C21 (stereo not drawn) | -1 | 0.2 | 

Row | Structure (SMILES) | % Inhibition [%] | Z score | Z score (2 µM)
43 | COC(=O)c1ccc(C[N+]2(C[C@H]3COC4(CCCCC4)O3)CCCC2)cc1 | -5 |  | 0.44 and 0.65
44 | Cc1ccnc(-n2nccc2NC(=O)N(C)CC[C@H]2CCCCN2C)c1 | 7 | -0.86 | 
45 | CCCC[C@@]1(O)COC2(CN(C(=O)c3cccnc3C)C2)C1 | 0 | 0.04 | 
46 | CC1(C(=O)NC[C@H]2CCCCN(C(=O)C3(C)CCC3)C2)CCC1 | -18 | 3.46 | 
47 | O=C(NCCC1=CCCCC1)c1ccc(NC(=O)C2CCC2)cc1 | -10 | 1.18 | 
48 | O=C(NS(=O)(=O)c1ccsc1)C1CCC1 | -4 | 0.77 | 
49 | CC[C@H](C)S(=O)(=O)NC(=O)c1cnn(C)c1 | -4 | 0.33 | 
50 | COC(C)(C)C[C@H](C)NC(=O)NCc1cc(C)on1 | 0 | -0.06 | 
51 | CN(C(=O)C1CCC(OC(F)F)CC1)c1ccc(-c2ccccc2)nn1 (stereo not drawn) | -9 | 1 | 
52 | Cc1nn(C)c(C)c1CN(CCO)[C@@H](C)C(=O)N1CCCC1 | -8 | 1.39 | 
53 | O=C(c1ccncc1)N1CC[C@H]2[C@@H](CCCN2CC2CC=CCC2)C1 (stereo partly drawn) | -11 | 1.39 | 
54 | O=C1NCCC[C@@H]1Nc1ncccc1F | 1 | -0.28 | 
55 | COc1ccc(CN2CCn3nc(C(=O)N4CCc5ccccc5C4)cc3C2=O)cc1 | -8 | 1.66 | 
56 | CC(C)(C)C1CCC(O)(CNC(=O)NC2CCC(O)CC2)CC1 (stereo not drawn) | 0 | -0.1 | 
57 | Cn1c(=O)n(CC(=O)NCc2ccc(F)cc2)c2cncnc21 | -29 | 2.96 | 
58 | O=C(c1cccnc1)N1CC[C@H](Oc2ncc(Cl)cn2)C1 | -3 | 0.63 | 
59 | O=C(c1ccc2ncccc2c1)N1CC2CC1CS2(=O)=O (stereo not drawn) | -1 | 0.1 | 
60 | Cc1ccc(Cn2ncc3c2NC(=O)C[C@]32C(=O)Nc3ccccc32)cc1 | 3 | -0.43 | 
61 | CN1CCC(N2CCC(c3ncnn3-c3ccc(F)c(F)c3)CC2)CC1 | -7 | 0.9 | 
62 | COc1ccc2c(n1)N(C)CCN2C(=O)c1ccnnc1C | -11 | 1.18 | 
63 | Cc1cc(C)c(C)c(S(=O)(=O)N(C(=O)Cc2ccccc2)c2ccc3oc(=O)sc3c2)c1C | -30 | 3.69 | 

Row | Structure (SMILES) | % Inhibition [%] | Z score | Z score (2 µM)
64 | C[C@H](O)CCN(C)c1ccc(C#N)cc1F | 3 | -0.36 | 
65 | COc1ccc2c(c1)C(N1CCCN(C(=O)NCc3ccccc3)CC1)=Nc1ccccc1O2 | -2 | 0.29 | 
66 | O=C(C[C@H]1COCCN1Cc1ccc2c(c1)OCCO2)Nc1ccccc1 | -4 | 0.69 | 
67 | FC(F)c1cscc1-c1cn2c(n1)CCC2 | -7 | 0.7 | 
68 | Cc1cc(S(=O)(=O)N2C[C@@H](F)C[C@H]2C(=O)N2CCc3ccccc3C2)ccc1F | -5 | 0.59 | 
69 | CCc1nc2ccc(-c3noc(-c4ccccn4)n3)cc2n1CC | -13 | 2.16 | 
70 | CCn1nccc1CN1CCN(c2ccnc(C)n2)CC1 | -7 | 0.69 | 
71 | O=C(c1ccc(Cl)c(Cl)c1)N1CC[C@H](Oc2cnsn2)C1 | -8 | 1.42 | 
72 | Cn1nc(C2CCCCC2)cc1NCc1ccc(C#N)cc1 | -7 | 0.94 | 
73 | Cc1c(Cl)cc(C(=O)NCCc2cnccn2)cc1Cl | 2 | -0.25 | 
74 | N#Cc1ccccc1-c1ccccc1C(=O)N1C2CCC1CC(O)C2 (stereo not drawn) | 4 | -0.46 | 
75 | CC(=O)N1CCCN(C(=O)c2cc3ccccc3c(=O)[nH]2)CC1 | 0 | -0.05 | 
76 | Cc1cc(C(=O)NCC[C@H]2CCCN2C(=O)OC(C)(C)C)oc1C | -6 | 0.92 | 
77 | CCN(Cc1noc(C2CCC2)n1)C(=O)NC[C@H]1CC(=O)N(C(C)(C)C)C1 | 1 | -0.21 | 
78 | O=C(Nc1ccc(F)cc1F)c1ccc(S(=O)(=O)N2CCCCCC2)cc1 | -15 | 2.5 | 
79 | CC(C)(CO)NC(=O)CCC(C)(C)c1ccccc1 | 0 | -0.05 | 
80 | O=C(O)C(=O)N1CCC[C@@H]1Cc1c(F)cccc1Cl | -8 | 1.64 | 
81 | Cc1c(Cl)cccc1NC(=O)Cn1nc(N2CCCCCC2)c2ccccc2c1=O | -5 | 0.75 | 
82 | Cc1cc(NC(=O)CN2CCC(N3c4ccccc4N(C)S3(=O)=O)CC2)no1 | 4 | -0.46 | 
83 | C[C@@H](CC#N)N(C)Cc1cc2ccncc2s1 | 3 | -0.55 | 
84 | CC1(CNC(=O)c2cccc(-c3nccs3)c2)COC1 | -8 | 0.91 | 
